# The shares of active, inactive and inconclusive entries below differ from those in the screen. For some assays here: No potency is given beside an inconclusive call; the fits are too rough. Active and inactive are the calls of the source. Unless noted, the call rests on the fitted dose curve; in most records, active means well fitted curve in the direction sought with a large enough effect; inconclusive means small, poorly fitted or top-dose-only effect, or another doubt; inactive means no such curve, though single readings can be large; an effect the other way counts as inactive or inconclusive.
# What was measured:
# [1] = target: Glucocorticoid receptor (Homo sapiens) (UniProt P04150); experiment: GR-EFC Redistribution (AID 451; calls by dose curve; further: potency means the concentration at half of the fitted maximal effect); conditions: CHO-K1 GR-EFC translocation, beta-gal luminescence, 2 h
# Chain of UniProt P04150 (P04150 whole entry, looked up, the tested form may be a part): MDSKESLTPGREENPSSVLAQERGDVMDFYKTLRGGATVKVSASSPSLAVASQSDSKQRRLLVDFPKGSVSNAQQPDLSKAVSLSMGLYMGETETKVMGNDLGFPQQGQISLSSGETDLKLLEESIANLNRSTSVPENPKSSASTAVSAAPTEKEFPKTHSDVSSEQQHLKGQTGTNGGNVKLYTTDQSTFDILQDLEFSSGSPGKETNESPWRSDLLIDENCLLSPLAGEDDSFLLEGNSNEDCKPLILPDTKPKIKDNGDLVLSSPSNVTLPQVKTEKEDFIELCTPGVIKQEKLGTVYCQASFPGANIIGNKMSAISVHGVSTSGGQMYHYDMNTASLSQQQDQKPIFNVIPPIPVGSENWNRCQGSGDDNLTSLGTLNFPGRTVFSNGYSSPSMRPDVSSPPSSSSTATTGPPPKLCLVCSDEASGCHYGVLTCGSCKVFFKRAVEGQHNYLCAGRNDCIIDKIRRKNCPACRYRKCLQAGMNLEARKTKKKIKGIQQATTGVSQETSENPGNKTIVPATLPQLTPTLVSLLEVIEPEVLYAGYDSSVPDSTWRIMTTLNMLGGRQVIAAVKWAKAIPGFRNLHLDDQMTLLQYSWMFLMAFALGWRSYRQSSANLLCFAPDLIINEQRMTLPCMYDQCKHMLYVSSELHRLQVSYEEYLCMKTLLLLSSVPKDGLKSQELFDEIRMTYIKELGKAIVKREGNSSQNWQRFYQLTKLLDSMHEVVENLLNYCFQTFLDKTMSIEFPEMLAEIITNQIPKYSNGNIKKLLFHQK
# Summary of the method: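 Translocation of GR-ED fusion to nuclear EA restores b-gal, read by luminescence after 1 h room-temperature detection. Engineered CHO-K1 biosensor cells, 1,000/well, exposed 2 h at 37 C to titrations up to 46 uM final.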
# [2] = target: Cytochrome P450 2C9 (Homo sapiens) (UniProt P11712); experiment: qHTS Assay for Inhibitors and Substrates of Cytochrome P450 2C9 (AID 883); conditions: recombinant CYP2C9, luciferin-H luminescence, 60 min; activity change, negative = inhibition: at 57.1 µM (top of the series); further: nearly all actives have a fitted effect of over 60% in size; further: potency means the concentration at half of the fitted maximal effect
# Chain of UniProt P11712 (P11712 whole entry, looked up): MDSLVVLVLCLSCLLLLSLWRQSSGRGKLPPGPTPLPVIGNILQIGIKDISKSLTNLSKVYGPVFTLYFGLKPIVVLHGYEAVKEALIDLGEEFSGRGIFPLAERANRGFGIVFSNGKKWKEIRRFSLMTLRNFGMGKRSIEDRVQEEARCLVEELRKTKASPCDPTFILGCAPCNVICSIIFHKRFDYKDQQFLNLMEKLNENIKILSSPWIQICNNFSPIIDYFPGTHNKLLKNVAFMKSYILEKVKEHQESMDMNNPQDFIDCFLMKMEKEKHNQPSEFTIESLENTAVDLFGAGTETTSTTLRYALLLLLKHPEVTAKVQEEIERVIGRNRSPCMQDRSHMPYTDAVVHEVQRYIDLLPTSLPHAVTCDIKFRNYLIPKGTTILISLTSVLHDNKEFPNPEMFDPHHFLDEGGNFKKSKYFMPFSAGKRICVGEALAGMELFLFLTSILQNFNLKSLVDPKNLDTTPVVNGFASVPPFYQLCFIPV
# Summary of the method: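 Turnover of Luciferin-H (100uM, KM) by 10nM human CYP2C9 was measured over 60 min at 37C with NADPH regeneration; inhibitors and some substrates reduce luminescence. Data normalized to sulphaphenazole 57uM.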
# [3] = target: Cytochrome P450 2D6 (Homo sapiens) (UniProt P10635); experiment: qHTS Assay for Inhibitors and Substrates of Cytochrome P450 2D6 (AID 891); conditions: recombinant CYP2D6, luciferin-ME EGE luminescence; activity change, negative = inhibition: at 57.1 µM (top of the series);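 further: luciferin methyl ether substrate demethylated by CYP2D6 with NADPH regeneration; potency means the concentration at half of the fitted maximal effect; nearly all actives have a fitted effect of over 60% in size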
# Chain of UniProt P10635 (P10635 whole entry, looked up): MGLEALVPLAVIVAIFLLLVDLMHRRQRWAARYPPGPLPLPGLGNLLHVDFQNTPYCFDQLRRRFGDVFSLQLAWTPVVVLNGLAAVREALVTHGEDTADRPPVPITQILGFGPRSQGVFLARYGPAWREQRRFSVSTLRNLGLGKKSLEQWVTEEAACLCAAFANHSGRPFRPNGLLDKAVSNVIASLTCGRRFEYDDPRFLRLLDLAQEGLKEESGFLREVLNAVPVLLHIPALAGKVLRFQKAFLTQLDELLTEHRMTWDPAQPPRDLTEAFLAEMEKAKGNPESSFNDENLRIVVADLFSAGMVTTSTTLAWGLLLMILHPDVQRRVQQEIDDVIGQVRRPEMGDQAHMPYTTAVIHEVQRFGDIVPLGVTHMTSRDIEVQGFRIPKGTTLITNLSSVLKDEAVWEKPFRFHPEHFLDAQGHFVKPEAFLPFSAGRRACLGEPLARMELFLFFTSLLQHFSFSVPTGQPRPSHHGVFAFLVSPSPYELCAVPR
# Summary of the method: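 Luminescent read-out of luciferin formed by 5 nM human CYP2D6 demethylating 30 uM Luciferin-ME EGE (Km level) over 60 min at room temperature after NADPH regeneration addition. Data normalized to full inhibition by 1.43 uM quinidine.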
# [4] = qHTS Assay for Identification of Small Molecule Agonists for Hypoxia Response Element Signaling Pathway (AID 914; active means well fitted activation curve with a large enough effect in the signal ratio, with a control signal flat, not every such curve was filed as active; inconclusive means small, poorly fitted or top-dose-only effect, or effect the other way, or a change in a side signal; the % refers to the signal ratio; further: potency means the concentration at half of the fitted maximal effect); conditions: ME-180 (cervical carcinoma) HRE-bla reporter, beta-lactamase ratio, CoCl2, 17 h; activation: hits give high values
# Summary of the method: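 In Opti-MEM containing 0.5% dialyzed FBS and 10 mM HEPES, ME-180 HRE-bla cells received a compound titration and EC50 CoCl2. They were incubated 17 hours, then CCF4-loaded 2.5 hours at room temperature before ratio reading.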
# [5] = target: 3',5'-cyclic-AMP phosphodiesterase 4B (Homo sapiens) (UniProt Q07343); experiment: qHTS Assay for Inhibitors of PDE-IV (AID 607; active means well fitted activation curve with a large enough effect in the main read-out, with a control signal flat, not every such curve was filed as active; inconclusive means small, poorly fitted or top-dose-only effect, or effect the other way, or a change in a side signal; further: potency means the concentration at half of the fitted maximal effect); conditions: HEK293 ACTOne CNG channel cells, membrane potential fluorescence
# Chain of UniProt Q07343 (Q07343 whole entry, looked up): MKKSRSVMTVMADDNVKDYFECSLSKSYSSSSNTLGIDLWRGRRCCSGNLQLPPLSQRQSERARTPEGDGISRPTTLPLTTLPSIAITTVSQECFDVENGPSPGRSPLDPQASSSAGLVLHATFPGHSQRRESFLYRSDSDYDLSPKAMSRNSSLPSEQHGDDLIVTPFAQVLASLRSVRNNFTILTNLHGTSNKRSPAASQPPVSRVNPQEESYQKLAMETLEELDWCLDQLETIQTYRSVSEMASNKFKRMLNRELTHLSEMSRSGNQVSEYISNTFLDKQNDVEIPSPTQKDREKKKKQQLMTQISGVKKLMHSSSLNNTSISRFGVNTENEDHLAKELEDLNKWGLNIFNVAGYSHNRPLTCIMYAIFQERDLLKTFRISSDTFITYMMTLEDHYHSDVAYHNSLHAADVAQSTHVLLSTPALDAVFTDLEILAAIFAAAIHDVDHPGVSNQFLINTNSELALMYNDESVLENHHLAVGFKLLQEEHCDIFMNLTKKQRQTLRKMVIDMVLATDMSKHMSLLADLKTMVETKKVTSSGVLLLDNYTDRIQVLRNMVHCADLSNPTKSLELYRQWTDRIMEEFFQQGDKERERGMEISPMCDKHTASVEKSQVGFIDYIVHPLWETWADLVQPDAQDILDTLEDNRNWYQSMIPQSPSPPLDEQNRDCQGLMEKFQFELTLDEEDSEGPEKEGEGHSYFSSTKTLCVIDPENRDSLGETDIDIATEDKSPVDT
# Summary of the method: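 Live HEK293 cells with a modified cyclic nucleotide-gated (CNG) channel report intracellular cAMP via membrane-potential dye fluorescence (ex 535/em 590 nm). Endogenous PDE-IV was targeted. Compounds were tested at up to 22.9 uM final; RO 20-1724 100 uM served as control.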
# [6] = target: Thioredoxin reductase 1, cytoplasmic (Rattus norvegicus) (UniProt O89049); experiment: qHTS Assay for Inhibitors of Mammalian Selenoprotein Thioredoxin Reductase 1 (TrxR1) (AID 488773); conditions: purified TrxR1 enzyme activity; Potency: inhibition; series mostly up to 57.1 µM;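 further: drop in NADPH fluorescence over an 8 min run after selenite addition; nearly all actives have a fitted effect of over 40% in size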
# Chain of UniProt O89049 (O89049 whole entry, looked up): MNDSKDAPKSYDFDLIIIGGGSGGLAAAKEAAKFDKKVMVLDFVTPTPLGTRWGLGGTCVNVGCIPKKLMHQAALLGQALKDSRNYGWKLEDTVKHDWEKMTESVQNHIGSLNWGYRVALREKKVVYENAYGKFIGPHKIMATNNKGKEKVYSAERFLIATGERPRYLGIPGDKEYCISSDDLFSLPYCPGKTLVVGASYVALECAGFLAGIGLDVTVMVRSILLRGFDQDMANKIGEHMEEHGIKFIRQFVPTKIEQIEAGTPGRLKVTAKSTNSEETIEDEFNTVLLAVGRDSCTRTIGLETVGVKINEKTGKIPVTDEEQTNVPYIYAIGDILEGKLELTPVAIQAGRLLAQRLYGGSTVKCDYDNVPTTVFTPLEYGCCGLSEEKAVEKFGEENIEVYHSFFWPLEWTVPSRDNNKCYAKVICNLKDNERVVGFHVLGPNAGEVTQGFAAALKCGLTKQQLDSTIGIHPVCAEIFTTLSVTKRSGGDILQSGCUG
# Summary of the method: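 Inhibition is scored from the loss of NADPH fluorescence between first and last reads of an 8-min kinetic run. Selenite (400 uM) was the substrate, added after 15 min compound preincubation at room temperature.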
# [7] = target: ATPase family AAA domain-containing protein 5 (Homo sapiens) (UniProt Q96QE3); experiment: Validation screen for small molecules that inhibit ELG1-dependent DNA repair in human embryonic kidney (HEK293T) cells expressing luciferase-tagged ELG1 (AID 493107); conditions: HEK293T ELG1-luciferase level, luminescence, 5-fluorouridine co-treatment, 16 h; series mostly up to 46.1 µM;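 further: inhibitors lower the ELG1-luciferase luminescence signal; nearly all actives have a fitted effect of over 70% in size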
# Summary of the method: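 Luciferase read-out, ONE-Glo, 30 min at room temperature, follows 16 h co-exposure at 37 C of compound and the DNA-damaging agent 5-fluorouridine. Cells: HEK293T with ELG1-luciferase fusion, 2,000 per well, DMSO as vehicle.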
# [8] = qHTS for Inhibitors of ATXN expression: Validation of Cytotoxic Assay (AID 588349); conditions: cytotoxicity counter-screen for ATXN expression inhibitors, cell viability; series mostly up to 57.1 µM
# Summary of the method: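 Cytotoxicity counter-screen: ATP-based luminescent viability (CellTiter Glo) after 72 hr exposure of HEK293 cells to a compound titration at 37 degrees C.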
# [9] = target: Tyrosyl-DNA phosphodiesterase 1 (Homo sapiens) (UniProt Q9NUW8); experiment: Confirmation Assay for Inhibitors of Tyrosyl-DNA Phosphodiesterase (TDP1) (AID 489007); conditions: recombinant human TDP1 enzymatic activity, dose-response; further: potency means the concentration at half of the fitted maximal effect; nearly all actives have a fitted effect of over 40% in size
# Chain of UniProt Q9NUW8 (Q9NUW8 whole entry, looked up): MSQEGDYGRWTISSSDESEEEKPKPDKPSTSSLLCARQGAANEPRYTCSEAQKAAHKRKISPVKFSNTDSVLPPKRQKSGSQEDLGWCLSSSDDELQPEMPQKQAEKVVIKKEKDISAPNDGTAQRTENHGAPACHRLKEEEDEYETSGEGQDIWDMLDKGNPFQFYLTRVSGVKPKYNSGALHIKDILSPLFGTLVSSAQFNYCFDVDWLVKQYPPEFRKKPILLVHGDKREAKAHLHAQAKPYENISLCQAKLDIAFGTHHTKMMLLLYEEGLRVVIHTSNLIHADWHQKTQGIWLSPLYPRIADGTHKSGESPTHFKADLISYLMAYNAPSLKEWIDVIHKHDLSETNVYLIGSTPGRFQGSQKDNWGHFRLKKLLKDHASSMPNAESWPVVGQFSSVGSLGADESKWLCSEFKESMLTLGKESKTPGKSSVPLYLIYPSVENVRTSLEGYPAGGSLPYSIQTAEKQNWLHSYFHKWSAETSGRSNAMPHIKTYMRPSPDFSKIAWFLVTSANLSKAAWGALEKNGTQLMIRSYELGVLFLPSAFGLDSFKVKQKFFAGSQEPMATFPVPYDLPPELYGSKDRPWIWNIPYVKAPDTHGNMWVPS
# Summary of the method: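 AlphaScreen assay of tyrosine-FITC cleavage from a biotinylated DNA substrate (15 nM) by E. coli-expressed human Tdp1 (1 nM). Sequence: compound preincubation 15 min, reaction 5 min, bead detection 10 min, all at room temperature. No-enzyme wells give maximum signal.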
# [10] = target: Cytochrome P450 2C19 (Homo sapiens) (UniProt P33261); experiment: qHTS Assay for Inhibitors and Substrates of Cytochrome P450 2C19 (AID 899); conditions: recombinant CYP2C19, luciferin-H EGE luminescence; series mostly up to 11.4 µM; further: nearly all actives have a fitted effect of over 60% in size; further: potency means the concentration at half of the fitted maximal effect
# Chain of UniProt P33261 (P33261 whole entry, looked up): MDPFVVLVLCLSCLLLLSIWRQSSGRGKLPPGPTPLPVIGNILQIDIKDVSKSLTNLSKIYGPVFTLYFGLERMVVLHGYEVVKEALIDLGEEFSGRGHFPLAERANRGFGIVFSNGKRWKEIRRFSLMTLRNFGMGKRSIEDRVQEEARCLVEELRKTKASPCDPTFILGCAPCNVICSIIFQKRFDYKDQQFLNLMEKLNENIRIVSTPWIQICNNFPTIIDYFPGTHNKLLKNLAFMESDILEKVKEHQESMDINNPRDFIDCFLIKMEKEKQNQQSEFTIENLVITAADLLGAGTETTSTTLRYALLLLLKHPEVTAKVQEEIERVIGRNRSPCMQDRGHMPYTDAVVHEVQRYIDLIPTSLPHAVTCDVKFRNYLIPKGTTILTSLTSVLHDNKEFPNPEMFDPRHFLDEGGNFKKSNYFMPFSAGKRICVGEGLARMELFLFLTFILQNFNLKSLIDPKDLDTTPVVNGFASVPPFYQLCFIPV
# Summary of the method: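 Reactions contain 5nM enzyme, 10uM Luciferin-H EGE (KM) and 50mM KPO4; compound preincubates 10 min at 37C, NADPH regeneration starts turnover for 60 min. Luminescence after detection reagent gives activity.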
# [11] = target: Cytochrome P450 3A4 (Homo sapiens) (UniProt P08684); experiment: qHTS Assay for Inhibitors and Substrates of Cytochrome P450 3A4 (AID 884); conditions: recombinant CYP3A4, Luciferin-PPXE luminescence; series mostly up to 57.1 µM; further: potency means the concentration at half of the fitted maximal effect; nearly all actives have a fitted effect of over 50% in size
# Chain of UniProt P08684 (P08684 whole entry, looked up): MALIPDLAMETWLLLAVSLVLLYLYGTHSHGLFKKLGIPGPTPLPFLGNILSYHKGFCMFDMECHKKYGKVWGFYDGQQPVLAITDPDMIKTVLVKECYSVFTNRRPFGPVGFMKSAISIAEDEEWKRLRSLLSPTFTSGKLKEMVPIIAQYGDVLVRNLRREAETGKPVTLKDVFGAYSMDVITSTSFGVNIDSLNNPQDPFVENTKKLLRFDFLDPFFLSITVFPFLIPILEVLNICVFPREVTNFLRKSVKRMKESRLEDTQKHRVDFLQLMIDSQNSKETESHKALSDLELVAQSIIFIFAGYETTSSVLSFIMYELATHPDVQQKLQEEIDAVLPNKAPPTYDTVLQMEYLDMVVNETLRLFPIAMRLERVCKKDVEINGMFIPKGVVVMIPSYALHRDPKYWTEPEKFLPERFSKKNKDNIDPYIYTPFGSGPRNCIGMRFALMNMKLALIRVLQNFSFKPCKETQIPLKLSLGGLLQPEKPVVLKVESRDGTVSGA
# Summary of the method: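 Luminescent readout of luciferin produced by CYP3A4 (20 nM) dealkylation of Luciferin-PPXE, 25 uM (its KM). NADPH-driven reaction ran 60 min at RT after 10 min compound preincubation; data scaled to 57 uM ketoconazole as 100% inhibition.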
# [12] = target: ATP-dependent 6-phosphofructokinase (Trypanosoma brucei brucei) (UniProt O15648); experiment: qHTS Assay to Find Inhibitors of T. brucei phosphofructokinase: hit validation (AID 492961); further: potency means the concentration at half of the fitted maximal effect; conditions: T. brucei PFK, ADP-Glo luminescence; series mostly up to 51.4 µM
# Summary of the method: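 Measures ADP output of PFK (1.25 nM) at 0.1 mM ATP, 0.5 mM F6P, pH 8.0 TEA buffer with 5 mM MgCl2. No-enzyme wells define full inhibition; uninhibited enzyme wells define zero.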
# [13] = target: Luciferin 4-monooxygenase (Photinus pyralis) (UniProt P08659); experiment: Biochemical firefly luciferase enzyme assay for NPC (AID 624030); further: potency means the concentration at half of the fitted maximal effect; nearly all actives have a fitted effect of over 70% in size; conditions: purified P. pyralis luciferase, luminescence, 5 min; series mostly up to 58.6 µM
# Summary of the method: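 Direct inhibition of firefly luciferase enzyme (10 nM final, 50 mM Tris Acetate) assessed by luminescence within 5 minutes. Percent activity scaled between DMSO and PTC124 positive control, with concentration-effect curves classified by fit quality and response.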
# [14] = S16 Schwann cell viability assay (CellTiter-Glo assay) (AID 624031); conditions: S16 rat Schwann cells viability, 24 h; series mostly up to 57.5 µM;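 further: native untransfected S16 rat Schwann cells; cellular ATP luminescence as a viability measure; nearly all actives have a fitted effect of over 70% in size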
# Summary of the method: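 Rat S16 Schwann cells without reporter constructs received compound or DMSO for 24 h at 37 °C under 5% CO2. Cellular ATP was then quantified by CellTiter-Glo luminescence, with vehicle wells defined as 0% activity and cell-free wells as reference.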
# AA1029 = experiment: qHTS profiling for inhibitors of Plasmodium falciparum proliferation (AID 504749); further: nearly all actives have a fitted effect of over 60% in size; further: potency means the concentration at half of the fitted maximal effect; conditions: P. falciparum in erythrocytes, SYBR Green DNA, 72 h; series mostly up to 28.7 µM
# Summary of the method: (§1)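 SYBR Green fluorescence of parasite DNA, read after lysis and overnight dark incubation, measured growth over 72 h in erythrocyte culture at 0.3% parasitemia and 2.5% hematocrit. Data normalised to DMSO and 0.29 uM artemisinin, with plate-drift correction.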
# CP269 = experiment: as above; conditions: P. falciparum in erythrocytes, SYBR Green DNA, 72 h; series mostly up to 12.8 µM
# Summary of the method: as §1
# GB4 = experiment: as above; conditions: P. falciparum in erythrocytes, SYBR Green DNA, 72 h; series mostly up to 28.7 µM
# Summary of the method: as §1
# Tags describe the fitted curve by direction and shape or compound fluorescence and quenching.
structure (smiles),measurement,setting,value
c1cc(CSSCc2ccncc2)ccn1,Potency,[1],inconclusive [single point]
same,Potency,[2],active: 1.58 µM
same,Potency,[3],"inconclusive [inhibitor, partial curve]"
C[C@H]1C[C@@H]2[C@H]3CCC4=CC(=O)C=C[C@@]4(C)[C@]3(Cl)[C@@H](Cl)C[C@]2(C)[C@]1(O)C(=O)COP(=O)(O)O,Potency,[1],active: 7.37 µM
same,Potency,[4],"inconclusive [inhibitor, full curve]"
CN(C)CN1C(=O)S/C(=C2/C(=O)N(CN(C)C)c3ccccc32)C1=O,Potency,[1],inactive: > 9.22 µM
same,Potency,[4],"inconclusive [inhibitor, single point]"
Clc1ccc(CN2CCCN(Cc3ccc(Cl)cc3)C2c2cc3ccccc3c3ccccc23)cc1,Potency,[1],inconclusive [single point]
same,Potency,[5],"inconclusive [activator, single point]"
same,Potency,[3],active: 0.199 µM
CN1C2CC(OC(=O)[C@H](CO)c3ccccc3)CC1C1OC12 (some centres not stated),Potency,[6],inactive
same,Potency,[7],inactive
same,Potency,[8],inactive
C[C@@]12CCC(=O)C=C1CC[C@H]1[C@H]3CC[C@](O)(C(=O)CO)[C@]3(C)CC[C@@H]12,Potency,[1],inconclusive [partial modulator]
same,Potency,[2],inactive
Cc1nn(-c2ccc(F)cc2)c(Cl)c1/C=N/NC(=O)c1cccs1,Potency,[9],"inconclusive [inhibitor, full curve]"
O=C(CCCc1ccccn1)c1ccccc1,Potency,[1],inconclusive [single point]
same,Potency,[10],"inconclusive [inhibitor, partial curve, poor fit]"
O=C1O[C@@H]([C@H](O)[C@H](O)[C@H](O)CO)[C@@H](O)[C@@H]1O,Potency,[1],inconclusive [single point]
same,Potency,[10],inactive
same,Potency,[4],"inconclusive [inhibitor, single point]"
Cc1ccccc1NC(=O)CSc1nc(-c2cccs2)nc2cc(=O)[nH]n12,Potency,[9],"inconclusive [inhibitor, single point]"
CCN1CCCCC(=N/O)/C(=N/O)CCCC1,Potency,[1],inconclusive [single point]
same,Potency,[3],"inconclusive [inhibitor, partial curve]"
O=C(c1coc(=O)c(Br)c1)N1CCOCC1,Potency,[9],"inconclusive [inhibitor, full curve]"
CN(C)c1nc(-c2ccccc2)c2cnn(Cc3ccccc3)c2n1,Potency,[9],active: 63.1 µM
FC(F)(F)c1ccccc1-c1cncnc1NCc1cccnc1,Potency,[1],inactive: > 46 µM
same,Potency,[5],inactive
same,Potency,[11],active: 0.631 µM
Cc1cc(C(=O)O)ccc1[C@H](N)C(=O)O,Potency,[1],inconclusive [single point]
same,Potency,[5],"inconclusive [inhibitor, single point]"
O=C(O)C(C(=O)/C=C/c1ccco1)=C1SCCS1,Potency,[9],"inconclusive [inhibitor, partial curve]"
CCN(CCCNC(=O)c1cc2cc3ccc(OC)cc3nc2s1)c1ccccc1,Potency,[9],"inconclusive [inhibitor, partial curve]"
COC(=O)c1cnn(-c2ccc(C(=O)Nc3cccc(C(C)=O)c3)cc2)c1N,Potency,[9],"inconclusive [inhibitor, partial curve]"
COc1ccc(NC(=O)/C=C/c2ccc(Br)o2)cn1,Potency,[9],"inconclusive [inhibitor, single point]"
Cc1ccccc1NS(=O)(=O)c1ccc2[nH]cc(C(=O)N(C)Cc3ccco3)c(=O)c2c1,Potency,[9],"inconclusive [inhibitor, full curve]"
Cc1cc2nc(-c3ccc(SCc4ccc(C(=O)O)cc4)nc3)[nH]c2cc1C,Potency,[9],"inconclusive [inhibitor, single point]"
COc1cc(/C=N/NC(=O)c2cccnc2)ccc1OC(=O)c1ccc([N+](=O)[O-])cc1,Potency,[9],"inconclusive [inhibitor, full curve]"
COc1ccc(C(=O)Nc2nc3cc4c(cc3s2)OCCO4)c(OC)c1,Potency,[9],"inconclusive [inhibitor, partial curve]"
CSc1nc(C)c2c(n1)N(c1ccc(O)cc1)CC2,Potency,[9],"inconclusive [inhibitor, partial curve]"
CN(C)[C@H]1C(=O)C(C(=O)NCN2CCCC2)=C(O)[C@]2(O)C(=O)C3=C(O)c4c(O)cccc4[C@](C)(O)[C@H]3C[C@H]12,Potency,[9],active: 0.0794 µM
same,Potency,[12],"inconclusive [falling, full curve]"
same,Potency,[13],"inconclusive [inhibitor, partial curve, poor fit]"
same,Potency,[14],inactive
same,Potency,AA1029,inactive
same,Potency,CP269,inactive
same,Potency,GB4,"inconclusive [inhibitor, partial curve, poor fit]"

# Reference: PubChem BioAssay (NCATS)
